Test results: article PMC7819943, “Rice protein-binding microarrays: a tool to detect cis-acting elements near promoter regions in rice”
The other results are listed elsewhere or left out.

biological target: T1, OsWOX13 (Oryza sativa, UniProt Q5QMM3 1-267); test: protein-binding microarray (RPBM); PBS, 2% BSA, 51.3 ng/ul salmon testes DNA, 50 uM zinc acetate, 200 nM TF, 25 C, 1 h; high values mean tight binding; details: protein: recombinant; tags: N-terminal polyhistidine and DsRed monomer fusion (pET32a); label: CyDye5-dUTP incorporated in the synthesized complementary strand; 3' TTTTT single-stranded linker to array surface; dsDNA, one strand shown
T1 sequence: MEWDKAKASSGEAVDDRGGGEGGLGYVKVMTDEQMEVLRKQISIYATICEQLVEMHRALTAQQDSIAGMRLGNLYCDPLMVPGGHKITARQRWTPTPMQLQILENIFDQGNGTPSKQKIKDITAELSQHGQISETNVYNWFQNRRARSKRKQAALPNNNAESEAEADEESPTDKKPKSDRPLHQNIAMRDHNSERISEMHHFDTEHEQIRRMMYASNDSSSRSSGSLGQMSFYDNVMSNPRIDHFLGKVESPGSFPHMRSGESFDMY
In short: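 Using Ni–NTA, transcription factors fused N-terminally to polyhistidine and DsRed were purified after expression in E. coli BL21-CodonPlus. These were incubated at 200 nM with a blocked, double-stranded custom Agilent array for 1 h at 25 °C in a buffer containing 50 µM zinc acetate, and the array was washed. The binding signal is per-feature fluorescence intensity (arbitrary units) on an Axon 4000B scanner.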

Sequence | binding signal
GCACCAATCATCATATATATGATATCTCAGTACGACAGATCGGAGTCACCTAGTGCAG | 13200 fluorescence intensity (a.u.)
TCTTTCCTATTTCGGTAATTATTGTTTTGCATTTACTATTCGGAGTCACCTAGTGCAG | 4040 fluorescence intensity (a.u.)
ACCTTAGATGAGGAATTAATAAATAATCCAAACTGGTCCCCGGAGTCACCTAGTGCAG | 9850 fluorescence intensity (a.u.)
GGTAGATTGGTACATAATGGCATTTCAACGTGGTATTCTACGGAGTCACCTAGTGCAG | 22700 fluorescence intensity (a.u.)
GCCTATATTGATAGAGAACTACCAGCACTGGCAGGATGAGCGGAGTCACCTAGTGCAG | 18900 fluorescence intensity (a.u.)
TCAATTGATTGATCTTCTGCTGCTGCTGCTGCATAGGTTCCGGAGTCACCTAGTGCAG | 38400 fluorescence intensity (a.u.)
GTGCTCATTTAATTGCTAAGATACACGTTTGCTAGTGCATCGGAGTCACCTAGTGCAG | 6850 fluorescence intensity (a.u.)
GCTCAAAATTCGATACCAATTAATTCTGTCATACAGGTCGCGGAGTCACCTAGTGCAG | 7950 fluorescence intensity (a.u.)
CTCTCGTAATCAGTTCAGATTTTCACTTAGATTATGGGAACGGAGTCACCTAGTGCAG | 5950 fluorescence intensity (a.u.)
GCCTCCAATTTGATTGTTCGCAACATTAAGTACCACCAAGCGGAGTCACCTAGTGCAG | 18200 fluorescence intensity (a.u.)
TCTTGATTGGTTGTTTTGGTTTGTTTCTTATTTATGTTTGCGGAGTCACCTAGTGCAG | 54100 fluorescence intensity (a.u.)
TATAGATAGATAGATATAGTTAGTTGCAGCTGGAGACGGACGGAGTCACCTAGTGCAG | 19300 fluorescence intensity (a.u.)
CAATTAGTCCGTGATTAGCCATAAGTGCTACAGTAACCCACGGAGTCACCTAGTGCAG | 8330 fluorescence intensity (a.u.)
TTGATTTATAGATACTGTGTTGACAATGGCAGAAACAAGTCGGAGTCACCTAGTGCAG | 10200 fluorescence intensity (a.u.)
TAGCATTTAATTGGAAGCATATACCATATGAGCAAATACGCGGAGTCACCTAGTGCAG | 26800 fluorescence intensity (a.u.)
GTTTGATTGTTTTCTAGTGTACTACACTTCCCTAGAACGTCGGAGTCACCTAGTGCAG | 55000 fluorescence intensity (a.u.)
TTTTGTAATTAGTTGAGTTAGATATCGGCTTTCCATTCTCCGGAGTCACCTAGTGCAG | 12700 fluorescence intensity (a.u.)
ATTAATTAGCTAGTGCGCCCCTGCCTGCTCATGAGTCATGCGGAGTCACCTAGTGCAG | 31200 fluorescence intensity (a.u.)
GAGTAAATTGCACACGGATGCAATCAATTGACCTGTGCTGCGGAGTCACCTAGTGCAG | 20000 fluorescence intensity (a.u.)
CGATTCAACAATCTTAATTCAATTATTACAAACCACGACACGGAGTCACCTAGTGCAG | 4590 fluorescence intensity (a.u.)
CAAAATTAATGTTATTATACTTTGTTATACAAATGAAATGCGGAGTCACCTAGTGCAG | 18700 fluorescence intensity (a.u.)
ACTTGATTCCTCCTGATACTCCCCGTTCAATCTTTGTTTACGGAGTCACCTAGTGCAG | 4910 fluorescence intensity (a.u.)
TCGAGATTTGATTCAAACACGCGGTTAATCCACATTATTTCGGAGTCACCTAGTGCAG | 4910 fluorescence intensity (a.u.)
